The source of these data is the RNAGym collection of RNA variant scans (doi:10.1093/nar/gkz1192).

To fix the notation:
B1: CPEB3 Ribozyme (parent)
chain: UAACAGGGGGCCACAGCAGAAGCGUUCACGUCGCAGCCCCUGUCAGAUUCUGGUGAAUCUGCGAAUUCUGCUGUAUAUCUC

The source gives no read counts; variants with many changes may rest on few reads.

In this data set the parent is B1. Kind of data set: self-cleavage, relative activity (ratio to wild type); higher = more cleavage; in vitro, sequencing. The method, boiled down: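 CPEB3 self-cleaving ribozyme mutant libraries were made by rounds of error-prone PCR, barcoded, and transcribed in vitro with T7 RNA polymerase for 5 hours at 37°C. Cleavage occurred during transcription and a 15 min DNase I step before EDTA stop. RNAs were reverse transcribed with template switching and Illumina-sequenced, with DNA sequencing mapping barcodes to variants. Relative activity is the variant's cleaved/total read fraction divided by wild type's (minimum 5 reads), averaged across three batches.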
For UAACAGGGGGCCACAGCAGAAGCGAUCACGUCGCAGCCCCAGUCAGAUUCUGGUAAUUCUGCGAACUCUGCUGUAUAUCUC [U25A U41A G55A A57U U66C], the self-cleavage was determined as 0.08.
The result for UAACAGGGGGCCACAGCAGAAGCGACCACGUCACAGCCCCUGUCAGAUUCUGGUGAUUCUGCGAAUUCAGCUGUAUAUCUC [U25A U26C G33A A57U U69A] reads 0.05.
For the variant UAACAGGGGGCCACAGCAGAAGCGAUCACGUCACAGCCCCUGUCAGAUACUGGUGAAUCUGCGAAUUCAGCCGUAUAUCUC [U25A G33A U49A U69A U72C], the self-cleavage worked out at 0.09.
As for UAACAGGGGGCCACAGCAGAAGCGACCACGUCGCAGCCCCUGUCAGAUUCUGGUGAAUCUGCGAAUUCUGCUGUAUUUCUC [U25A U26C A77U], the self-cleavage was 0.12.
With UAACAGGGGGCCACAGCAGAAGCGAUCACGUCGCAGCCCCUGUUAGAUUCUGGUGAAUCUGUGAAUUCUGCUGCAUAUCUC [U25A C44U C62U U74C] the figure was 0.08; with UAACAGGGGGCCACAGCAGAAGCGACUACGUCGCAGCCCCUGUCAGAUUCUGGUGAAUCUGCGAACUCUGCCGUAUAUCUC [U25A U26C C27U U66C U72C], 0.04; with UAACAGGGGGCCACAGCAGAAGCGAUCACGUCGCAGCCCCUGUCAGAUUCUGGUGAAUCUGCUAAUUCUGCUGUACAUCAC [U25A G63U U76C U80A], 0.08.
The result for UAACAGGGGGCCACAGCAGAAGCGAGCACGUCGCGGCCCCUGUCAGACCCUGGUGAAUCGGCGAAUUCUGCUGUAUAUCUC [U25A U26G A35G U48C U49C U60G] reads 0.11.
With UAACAGGGGGCCACAGCAGAAGCGAUCACGCCGCAGCCCCUGUCAGAUUCUGGUGAAUCUGCGAGUUCUGCUGUAUAUCUC [U25A U31C A65G] the figure was 0.34; with UAACAGGGGGCCACAGCAGAAGCGAUCACGUCGCACCCCCUGUCAGUUUCUGGCGAAUCUGCGAAUUCUGCUGUAUAUCUC [U25A G36C A47U U54C], 0.1.
Consider UAACAGGGGGCCACAGCAGAAGCGAUCACGUCGCAGCCCCUGUAAGAUUCUGGUGAAUCUGCGAAUUCUGCUGUAAUUCUC [U25A C44A U76A A77U], for which the self-cleavage is 0.09.
For UAACAGGGGGCCACAGCAGAAGCGAUCACGUCGUAGCCCCUGUCAGAUUCUGGAGAAUCUGCGAAUUCUGCUGUAUAUCUC [U25A C34U U54A], the self-cleavage is 0.16.
With UAACAGGGGGCCACAGCAGAAGCGAUCACGUCUCAGCCCCUGUCAGAUUCUGGUGGAUCUGCGAAUUCGGCAGUAUAUCUC [U25A G33U A56G U69G U72A] the figure was 0.05; with UAACAGGGGGCCACAGCAGAAGCGAACACGUCGCAGCCCCUGUCAGAUUCUGGUGAAUCUGCGAAUUCCGCUGUAUAUCUC [U25A U26A U69C], 0.16.
With UAACAGGGGGCCACAGCAGAAGCGAUCACUUCGCAGCCCCUAUCAGAUUCUGAUGAAUCUGCGAAUUCUGCUGUAUAACUC [U25A G30U G42A G53A U78A] the figure was 0.1.
On to UAACAGGGGGCCACAGCAGAAGCGAGCACGUCGCAGCCCCUGUCAGAUCCUGGUGAAUCAGCGUAUUCUGCUGUAUAUCUC [U25A U26G U49C U60A A64U], for which the self-cleavage came out at 0.08.
With UAACAGGGGGCCACAGCAGAAGCGAUCACGUCGCAGCCCCAGUCAGAUUCUGGGGAAUCUGCGAAUUCUGCUGUAUAUCUC [U25A U41A U54G] the figure was 0.12.
With UAACAGGGGGCCACAGCAGAAGCGAUCACGUCGCAGCCCAUGUCAGAUACAGGUGAAUCUGCGAAUUCUGCUGUAUAUCUC [U25A C40A U49A U51A] the figure was 0.18; with UAACAGGGGGCCACAGCAGAAGCGACUACGUCGCAGCCCCUGUCUGAUUCUGGUGAAUCUGCGAAUUCUGCUGUAUAUCUC [U25A U26C C27U A45U], 0.34; with UAACAGGGGGCCACAGCAGAAGCGAUCACGUCGCAGACCCUGUCAGAUUCUGGUGAAUCUGCGUAUUCUGCUGUAUAUCUC [U25A C37A A64U], 0.13.
Take UAACAGGGGGCCACAGCAGAAGCGAUCACGUCGCAGCUCCUGUCAGAUUCAGGUGAGUCUGCGAAUUCUGCUGUCCAUCUC [U25A C38U U51A A57G A75C U76C]: the self-cleavage worked out at 0.05.
Consider UAACAGGGGGCCACAGCAGAAGCGAUCACGUCGCAGCCCCUGUCAGAUUCUGGUGAAUCUGAGAAUUCUGCUGUAUGUCUC [U25A C62A A77G], for which the self-cleavage turned out to be 0.18.
For the variant UAACAGGGGGCCACAGCAGAAGCGAACACGUCGCAGCCCCUGUCAGAUUCAGGUGAAUCUGCGAAUUCUGCUGUAUAUCUC [U25A U26A U51A], the self-cleavage was 0.13.
Regarding UAACAGGGGGCCACAGCAGAAGCGAGCACGUCGCAGCCCCUGUCAGGUUCUGGUGAACCUGCGAACUCUGCUGUAUAUCCC [U25A U26G A47G U58C U66C U80C], the self-cleavage is 0.05.
With UAACAGGGGGCCACAGCAGAAGCGAUCACGUCGCAGCCCCUUUCAGGUUCUGGUGGAUCUGCGAAUUCUGCUGUAUAUCUC [U25A G42U A47G A56G] the figure was 0.18.
In the case of UAACAGGGGGCCACAGCAGAAGCGAUCACGUCGCAACCCCUGUCAGAUUCUGGUGAGUCUGCGAAUUCUGCUGUAUAUCUC [U25A G36A A57G], the self-cleavage turned out to be 0.13.
With UAACAGGGGGCCACAGCAGAAGCGAUCACGCUGCAGCCCCUGUCGGAUUCUGGUGAAUCUGCGAACUCUGCUGUAUAUCUC [U25A U31C C32U A45G U66C] the figure was 0.03; with UAACAGGGGGCCACAGCAGAAGCGAGCACGUCGCAGCCCCUGUCAGAUCCUGGUGAAUCUGCGAAUUCUGCUGUAUAUCUC [U25A U26G U49C], 0.3.
The result for UAACAGGGGGCCACAGCAGAAGCGAUCACGCCGCAGCCCCUGUCAGAUUCUGGGGAAUCUGCGAAUUCUGCUGUAUAUCUC [U25A U31C U54G] reads 0.25; that for UAACAGGGGGCCACAGCAGAAGCGAUCACGCCGCAGCGCCUGCCAGAUUCUGGUGAAUCUGCGAACUCUGCUGUAUAUCUC [U25A U31C C38G U43C U66C], 0.16.
With UAACAGGGGGCCACAGCAGAAGCGACCACGUCGCAGCCCCCGUCAGGUCCUGGUGAAUCUGCGAACUCUGCUGUAUAUCUC [U25A U26C U41C A47G U49C U66C], the self-cleavage is 0.05.
The result for UAACAGGGGGCCACAGCAGAAGCGAACACGUCGCAGCCCCUGUCAGAUUCUGAUGAAUCUGCGAAUUCUGCAGUAUAUCUC [U25A U26A G53A U72A] reads 0.08.
Turning to UAACAGGGGGCCACAGCAGAAGCGACCACGUCGCAGCCCCUGUCAGAUUCUGGUGAAUCUGCGAAUUCUGCCGCAUAUCUC [U25A U26C U72C U74C], the self-cleavage was 0.06.
Consider UAACAGGGGGCCACAGCAGAAGCGAUCACGUCGCAGCCCCUGUCAGAUUCUGGUAAAUCCGCGAAUUCUGCUGUAUAUCUC [U25A G55A U60C], for which the self-cleavage is 0.1.
